According to paper PMC4336329 (PLoS ONE, 2015):
The whole screen tested about 310,000 compounds, of which about 2,200 (0.71%) showed an effect of 50% or more. Effects have a minus sign here. The list shows a part of the results.

Biological target: human ether-à-go-go-related gene (hERG) potassium channel (human, UniProt Q12809)
Assay: primary screen, population patch clamp on CHO cells stably expressing hERG

Chain of human ether-à-go-go-related gene (hERG) potassium channel (Q12809 whole entry, looked up): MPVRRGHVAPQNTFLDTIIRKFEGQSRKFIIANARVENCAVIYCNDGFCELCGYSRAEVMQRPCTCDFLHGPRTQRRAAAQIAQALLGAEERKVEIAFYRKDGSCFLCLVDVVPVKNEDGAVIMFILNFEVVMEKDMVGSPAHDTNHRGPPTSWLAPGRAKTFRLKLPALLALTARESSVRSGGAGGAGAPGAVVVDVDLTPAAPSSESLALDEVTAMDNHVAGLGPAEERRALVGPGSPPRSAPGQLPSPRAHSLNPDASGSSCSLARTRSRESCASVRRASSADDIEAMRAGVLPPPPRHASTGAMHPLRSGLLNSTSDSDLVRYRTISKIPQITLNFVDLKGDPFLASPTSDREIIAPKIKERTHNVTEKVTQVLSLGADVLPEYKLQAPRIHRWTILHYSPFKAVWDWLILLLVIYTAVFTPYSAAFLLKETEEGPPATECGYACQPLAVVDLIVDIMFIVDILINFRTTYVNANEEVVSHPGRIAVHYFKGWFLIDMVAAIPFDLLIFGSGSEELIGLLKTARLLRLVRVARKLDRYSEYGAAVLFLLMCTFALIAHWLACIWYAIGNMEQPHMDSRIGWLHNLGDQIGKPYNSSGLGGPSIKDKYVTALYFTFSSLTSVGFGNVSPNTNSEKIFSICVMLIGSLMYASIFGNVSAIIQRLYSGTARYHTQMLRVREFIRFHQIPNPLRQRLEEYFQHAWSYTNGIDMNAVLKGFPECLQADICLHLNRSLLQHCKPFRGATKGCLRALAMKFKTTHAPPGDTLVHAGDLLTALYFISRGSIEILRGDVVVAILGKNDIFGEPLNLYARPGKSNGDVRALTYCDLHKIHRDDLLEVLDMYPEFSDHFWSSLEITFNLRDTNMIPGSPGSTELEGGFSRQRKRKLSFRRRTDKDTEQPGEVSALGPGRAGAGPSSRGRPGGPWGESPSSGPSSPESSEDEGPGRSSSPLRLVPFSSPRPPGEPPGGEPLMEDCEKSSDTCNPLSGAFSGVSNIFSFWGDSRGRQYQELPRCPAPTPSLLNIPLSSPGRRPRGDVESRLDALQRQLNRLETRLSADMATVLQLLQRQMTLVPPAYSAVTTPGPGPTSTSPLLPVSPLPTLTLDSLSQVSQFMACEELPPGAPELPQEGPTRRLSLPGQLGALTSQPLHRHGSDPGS

| Structure (SMILES) | hERG current change (%, negative = inhibition) at 1uM [%] |
| --- | --- |
| COc1ccc(N=Cc2c(O)[nH]c3ccccc23)cc1OC | -3.63 |
| Cc1ccccc1CSc1nc2c(c(=O)[nH]1)CCCC2 | 8.2 |
| Cn1nnnc1NCc1ccccc1F | 14 |
| COC(=O)C1=C(C(=O)OC)[C@@H]2N(C)c3ccc(OC)cc3[C@@]23C[C@@H](C(=O)OC)N(C(=O)COCc2ccccc2)C3=N1 | -2.56 |
| COCCNC(=O)CSc1nc2sccc2c(=O)n1-c1ccccc1 | 16.6 |
| CN(C)CCCNC(=O)C(=O)NCC(c1cccs1)S(=O)(=O)c1ccc(F)cc1 (centres unmarked) | 15.6 |
| COc1ccccc1NC(=O)c1ccc(C(=O)Nc2ccccc2OC)nc1 | 16.9 |
| S=C(NC1CCCCC1)N1CCN(c2ncccn2)CC1 | 19.3 |
| O=C(NC(=S)N1C[C@H]2C[C@H](C1)c1cccc(=O)n1C2)c1ccc(Cl)cc1Cl | -5.39 |
| COC(=O)c1cc(S(=O)(=O)NCc2ccccc2Cl)c[nH]1 | 19.2 |
| CN1CCN(c2ccc(NC(=O)Oc3ccccc3)cc2)CC1 | 17.4 |
| O=C(Nc1ccc2c(c1)OCCO2)c1ccncc1 | 11.8 |
| Cl.Clc1ccc(CN2C3=NCCCN3c3ccccc32)cc1Cl | -51.4 |
| Cc1cc(NC(=O)CSc2nnc(C3CC3)n2Cc2ccccc2)no1 | 0.512 |
| O=C1CN(C(=O)CCCc2c[nH]c3ccccc23)c2ccccc2N1 | 6.7 |
| CC(=O)N1CCN(S(=O)(=O)c2cccc(C(=O)OCc3cccc(F)c3)c2)CC1 | 14.4 |
| CCC(C)(C)n1nnnc1CN1CCN(c2nc3cc(OC)ccc3cc2C#N)CC1 | 2.69 |
| O=C(O)[C@H]1C[C@@H]1[C@H](NP(=O)(c1ccccc1)c1ccccc1)c1ccccc1 | 20.9 |
| CCOC(=O)Nc1ccc2nc3n(c(=O)c2c1)CCCCC3 | 9.48 |

| Structure (SMILES) | hERG current change (%, negative = inhibition) at 1uM [%] |
| --- | --- |
| O=C(N/N=C/c1ccc(OC(=O)c2ccco2)cc1)c1ccc[n+]([O-])c1 | 11.8 |
| CSc1nc2nccc(-c3ccc(Oc4ccccc4)cc3)n2n1 | 15.3 |
| Cc1ccc(C)c(CN2CCC(n3nnc4cc(F)ccc43)CC2)c1 | -3.37 |
| CCOc1ccccc1NC(=O)CN(c1ccc(C)cc1)S(=O)(=O)c1c(C)noc1C | 2.63 |
| O=C1CCC(C(=O)N(c2ccccc2)C2(C(=O)NC3CCCCC3)CCCCC2)N1 (centres unmarked) | 10.9 |
| COC(=O)CCc1c(C)c(C(=O)c2cc(OC)c(OC)c(OC)c2)c2ccccn12 | -2.41 |
| O=C(NC1CCCCC1)N(CCO)Cc1cc2cc3c(cc2[nH]c1=O)OCCO3 | 16.2 |
| O=C(NCc1ccc2c(c1)OCO2)c1cc(-n2cnnc2)ccc1Cl | -8.28 |
| COc1ccc(CCNC(=O)/C(=C/c2cccnc2)NC(=O)c2ccccc2)cc1 | 3.27 |
| C=CCN(CC=C)C(=O)COC(=O)c1n[nH]c2ccccc12 | 0.137 |
| CCc1c(O)nc(SCC(=O)Nc2nc3ccccc3s2)n(-c2ccccc2)c1=O | 7.33 |
| CCCCc1nc2ccccc2c(NC(=O)CNC(C)(C)C)c1CCC.O=C(O)C(=O)O | -0.207 |
| Cc1cc(C)c(C)c(S(=O)(=O)N2CCC(C(=O)NCc3ccco3)CC2)c1C | 5.06 |
| Oc1c(/C=C/C=C/C=Nc2ccccc2)sc(=S)n1Cc1ccccc1 | 2.72 |
| COc1ccc(Cl)cc1NC(=O)c1cc(-c2ccccc2O)n[nH]1 | 9.21 |
| O=C(CN1CCN(c2ccccn2)CC1)N1CCc2ccccc21 | 10.2 |
| COc1ccccc1CNCC(=O)Nc1ccc(N2CCOCC2)cc1.O=C(O)C(=O)O | 5.38 |
| Nc1ncncc1-c1ccc(Cl)cc1 | 13.1 |
| COc1ccc(CNC(=O)Cn2cc(C(F)(F)F)ccc2=O)cc1 | 7.96 |

| Structure (SMILES) | hERG current change (%, negative = inhibition) at 1uM [%] |
| --- | --- |
| CN(c1cccc(NC(=O)c2ccc(C(C)(C)C)cc2)c1)S(C)(=O)=O | 3.52 |
| Cc1ccccc1NC(=O)COC(=O)C1CC2CCCC(C1)C2=O (centres unmarked) | 9.65 |
| COC(=O)C1=C(c2ccc(-c3ccccc3)c(F)c2)C[C@@H]2CC[C@H]1N2C(=O)NCCCOC(C)C | 5.72 |
| CCC(Oc1ccccc1)C(=O)Nc1nnc(S(=O)(=O)N2CCCCC2)s1 (centres unmarked) | 8.82 |
| O=C(/C=C/c1c(Cl)cccc1Cl)Nc1ccncc1 | 2.03 |
| COc1cccc2cc(C(=O)NCc3ccco3)c(=O)oc12 | 12.2 |
| COc1ccc2nnc(-c3ccc(C(F)(F)F)cc3)n2n1 | 12 |
| Cc1cc(NC(=O)/C(C#N)=C/c2ccc(-c3ccc(SC(F)F)cc3)o2)n(-c2ccccc2)n1 | 5.35 |
| COc1cccc(OC)c1OCCCCCCN1CCN(C)CC1.Cl | 8.22 |
| C1CCC2(CC1)C1=C(CCCC1)Nc1nnnn12 | 3.72 |
| COc1ccc(NC(=O)C(CCSC)NC(N)=O)cc1NS(=O)(=O)c1ccc(F)cc1 (centres unmarked) | 12.5 |
| CC(=O)NC1=NN(C(C)=O)C(C)(c2ccc(C)cc2)S1 (centres unmarked) | 15.4 |
| COc1ccc(C(=O)C2CCCN(Cc3cn[nH]c3-c3ccc(F)cc3)C2)cc1OC (centres unmarked) | -25.9 |
| Brc1cc2c(cc1/C=N/Nc1nc(N3CCOCC3)nc(N3CCOCC3)n1)OCO2 | 9.44 |
| COC(=O)c1sccc1N(C)S(C)(=O)=O | 14.9 |
| COC(=O)CSc1nc(C)cc(N2CCOCC2)n1 | 1.51 |
| O=C1CC(=O)Nc2cc(S(=O)(=O)N3CCN(c4cccc(C(F)(F)F)c4)CC3)ccc2N1 | 5.15 |
| CC1CCCN(CCCNC(=O)C2CC(=O)N(c3ccc(F)c(Cl)c3)C2)C1 (centres unmarked) | 5.66 |
